# This sample is rich in variants without activity.
# B1: TPR 5TU (parent)
# chain: GGAUCUUCUCGAUCUAACAAAAAAGACAAAUCUGCCACAAAGCUUGAGAGCAUCUUCGGAUGCAGAGGCGGCAGCCUUCGGUGGCGCGAUAGCGCCAACGUUCUCAACUAUGACACGCAAAACGCGUGCUCCGUUGAAUGGAGUUUAUCAUG
# Variants of: B1
# Test: polymerase ribozyme fitness, log enrichment relative to wild type (log ratio); higher = more active; in vitro selection for triplet polymerase activity
# Summary of the method: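 Streptavidin-bead capture of gel-excised extended constructs, followed by RT-PCR, closed a single triplicate in vitro selection round. That round began by annealing PCR-built, transcribed mutant libraries of each subunit of a heterodimeric triplet polymerase ribozyme with a biotinylated primer, the partner subunit and triplets, then incubating them frozen at −7 °C. After Illumina sequencing of inputs and outputs, genotypes needed ≥10 input reads and ≥1 read per output. Fitness is the base-2 logarithm of genotype enrichment over wild-type enrichment, using inverse-variance-weighted replicate averages.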
row,Variant,polymerase ribozyme fitness (log ratio)
1,GGAUCUUCUCGAUCUCACAAAAAAGACAAAUCUGCCACAAAGCUUGAGAGUAUCUUCGGAUGCAGAGGCGGCAGCCUUCGGUGUCGCGAUAGCGCCAACGUUCUCAACUAUGACACGCAAAACGCGUGCUCCGUAGAAUGGAGUUUAUCAUG [A16C C51U G84U U135A],-3.41
2,GGAUCUUCUCGAUCUCACAAAAAAGACAAAUCUGCCACAUAGCUUGAGAGCAUCUUCGGAUGCAGAGGCGGCAGCCUUCGGUGGCGCGAUAGAGCCAACGUUCUCAACUAUGACACGCAAAGCGCGUGCUCCGUUGAAUGCAGUUUAUCAUG [A16C A40U C93A A122G G141C],≤ -4.2
3,GGAUCUUCUCGAUCUCACAAAAAAGACAAAUCUCGCACAAAGCUUGAGAGCAUCUUCGGAUGCAGAGGCGGCUGCCUUCGGUGGCGAGAUAGCGCCAACGUUCUCAACUAUGACACGCCAAACGCGUGCUCCGUUGAAUGGUGUUUAUCAUG [A16C G34C C35G A73U C87A A119C A142U],≤ -4.2
4,GGAUCUUCUCGAUCUCACAAAAAAGACAAAUCUGCCACAAAGCUUGAAAGCAUCUUCGGAAGCAGAGGCGGCAGCCUUCGGUGGCGCGAUAGCGCCAACGGUCUCAACUAUGACACGCAAAACGCGUGCUCCGUUGGAUGGAGUUGAUCAUG [A16C G48A U61A U101G A137G U146G],≤ -4.2
5,GGAUCUUCUCGAUCUCACAAAAAAGACAAAUCUGCCACAAAGCUUGAAAGCAUCUUCGGAUACAGAGGCGGCAGCCUUCGUUGGAGCGAUAGCGCCAACGUGCUCAACUAUGACACGCAAAACGCGUGCUCCGUUGGAUGGAGUUUAUCAUG [A16C G48A G62A G81U C85A U102G A137G],≤ -4.2
6,GGAUCUUCUCGAUCUCACAAAAAAGACAAAUCUGCCACAAAGCUUGAGAGCAUCUUCGGAUGCAGAGGCGGCAGCCUUCGGUGGCGCGAUUGCGCCAACGUUCUCAACUAUGACACGCAAAACGCGUGCUCCGUUGAAUGGAAUUUAUCAUG [A16C A91U G143A],≤ -4.2
7,GGAUCUUCUCGAUCUCACAAAAAAGACAAAUCUGCCACAAAGCUUGAGAGCAUCUUCGGAUGCAGAGGCGGCAGGGUUCGGUGGCGCGAUACCGCCAACGUUCUCAAAUAUGACACGCAAAACGCGUGCUCCGUUGAAUGGAGUUUAUCAUG [A16C C75G C76G G92C C108A],≤ -4.2
8,GGAUCUUCUCGAUCUCACAAAAAAGACAAAUCUGCCACAAAGCUUGAGAGCUUCUUCGGAUGCAGAGGCGGCAGCCUUCGGUGGGGCGAUAGCGCCAACGUUCUCAACUAUGACACGCAAAGCCCGUGCUCCGUUGAAUGGAGUUUAUCAUG [A16C A52U C85G A122G G124C],≤ -4.2
9,GGAUCUUCUCGAUCUCACAAAAAAGACAAAUCUGCCACACAGCUUGAGAGCAUCUUCGAAUGCAGAGGCGGCAGCCUUCGGUGGCGCGAUAGUGCCAACGUUCUCGACUAUGACACGCAAAACGCGUGCUCCGUUGAAUGGAGUUUAUCAUG [A16C A40C G59A C93U A106G],-2.02
10,GGAUCUUCUCGAUCUCACAAAAAAGAGAAAGUUGCCACAGAGCUUGAGAGCAUCUUCGGAUGCAGAGGCGGGAGCCUUCGGUGGCGCGAUAGCGCCAACUUUCUCAACUAUGACACGCAAAACGCGUGCUCCGUUGAAUGGAGUUCAUCAUG [A16C C27G U31G C32U A40G C72G G100U U146C],≤ -4.2
11,GGAUCUUCUCGAUCUCACAAAAAAGACAAAUCUGCCACAAAGCUUGAGAGCAUCUUCCGGUGCAGAGGCGGCAGCCUUCGGUUGCGCGAUAGCGCCAACGUUCUCAACUAUGACAUGCAAAACGCGUGCUCCGUUGAAUGGAGUUUAUCAUG [A16C G58C A60G G83U C116U],-0.784
12,GGAUCUUCUCGAUCUCACAAAAAAGACAAAUCUGCCACAAAGCUUGAGAGGAUCUUCGGAUGCAGAGGCGGCAGCCUUCGGUGGCGAGAUAGCGUCAACGUUCUCAACUAUGACACGCAAAACGCGUGCUCCGUUGAAUGGAGUUUAUCAUG [A16C C51G C87A C95U],≤ -4.2
13,GGAUCUUCUCGAUCUCACAAAAAAGACAAAUCUGCCACAAAGCUUGAGACCAUCUUCGCAUGCAGAGGCGGCAGCCUUCGGUGGCGCGAUAGCGCCAACGUUCUCAACUAUGACACGCAAAACGCGUGCUCCGUUGAAUGGAGUUUAUCAUG [A16C G50C G59C],≤ -4.2
14,GGAUCUUCUCGAUCUCACAAAAAAGACAAAUCUGCCACAAAACUUGAGAGCAUCUUCGGAUGCAGAGGCGGCAGCCUUCGGUGGCGCGAUAGCGCCAACGUUCUCAACUAUGACACGCAAAACGCGUGCUCCGUUGAAUGGAGUUUAUCAUG [A16C G42A],≤ -4.2
15,GGAUCUUCUCGAUCUCACAAAAAAGACAAAUCUGCCACAAAGUUUGAGCGCAUCUUCGGAUGCAGAGGCGCCAGCCUUCGGUGGCGCGAUAGCGCCAACGUUCACAACUAUGACACGCAAAACGUGUGCUCCGUUGAAUGGAGUUUAUCAUG [A16C C43U A49C G71C U104A C125U],≤ -4.2
16,GGAUCUUCUCGAUCUCACAAAAAAGACAAAUCUGCCACAAAGCUUGAGAGCAUGUUCGGAUGCAGAGGCGGCAGCCUUCGGUGGCGCAAUAGCGGCAACGUUCUCAACUAUGACACGCAAAACGCGUGCUCCGUUGAAUGGAGUUUAUCAUG [A16C C54G G88A C95G],≤ -4.2
17,GGAUCUUCUCGAUCUCACAAAAAAGACAAAUCUGGCACAAAGCUUGAGAACAUCUUCAGAUGCAGAGGCGGCAGCCUUCUGUGGCGCGAUAGCGACAACGUUCUUAACUAUGCCACGCAAAACGCGUGCUCCGUUGAAUGGAGUUUAUCAAG [A16C C35G G50A G58A G80U C95A C105U A113C U151A],≤ -4.2
18,GGAUCUUCUCGAUCUCACAAAAAAGACAAAUCUGCCACAAAGCUUGAGAGCAUCUUCGGAUGCAGAGGCGGCAGCCUUCGGUGGUGCGAUAGCGCCAACGUUCUCUACUAUGACACGCAAAACGCAUGCUCCGUUGAAUGGAGUUUAUCAUG [A16C C85U A106U G126A],-3.28
19,GGAUCUUCUCGAUCUCACAAAAAAGACAAAUCUGCCACAAAGCUUGAAAGCAUCUUCGGAUGCAGUGGCGGCAGUCUUCGGUGGCGGGAUAGCGCCAACGUUCUCAACUAUGACACGCAAAACGCGUGCUCCGUUGAAUGGAGUUUAUCAUG [A16C G48A A66U C75U C87G],≤ -4.2

# From the RNAGym collection of RNA variant scans (doi:10.1073/pnas.2313332121)
